Measurements from paper PMC12136788.
Some of the results follow.

T1: UNK ZnF1-3 (human, UniProt Q9C0B0 31-174)
T1 sequence: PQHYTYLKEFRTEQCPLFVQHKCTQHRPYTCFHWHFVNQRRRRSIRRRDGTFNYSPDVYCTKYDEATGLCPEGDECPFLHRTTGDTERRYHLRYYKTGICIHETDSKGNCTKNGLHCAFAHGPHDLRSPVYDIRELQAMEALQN

B1: chr2:198351390:198351391:-_ENSG00000144381_ENST00000345042|hu_hu|hu_hu_hu_mus_False|48_68 (ssRNA)
RNA: GGGAGUUCUACAGUCCGACGAUCUCAUUCCCACCCUCCACAGAAAGGCUGCUUCUGAACUCUCAUGGUGGUGGCAAGCGCUACAGUCCUGAUUUUAACAGAACAGUAGAGAUGCCUCAGUGAUUUAAGUUGAAAGCAGGACACCAACAGAGGAUUGAGCAUCA
B2: chr11:97546686:97546687:+_ENSMUSG00000038437_ENSMUST00000044730|mus_hu|FALSE|FALSE (ssRNA)
RNA: GGGAGUUCUACAGUCCGACGAUCUACGAACUGCCCUUCGUACAAAUAACAUCCGUUAUACAAAGAUACAAGAUCCGGGUUAUGCACAAUUCCAGGCUUGGAGGUGGCAGGGGGGCAUCGCCUUUGGGCUGAGGAUAUCAAGGUCAACAGAGGAUUGAGCAUCA
B3: chr4:17845017:17845018:+_ENSG00000109805_ENST00000514176|hu_hu|motif|central (ssRNA)
RNA: GGGAGUUCUACAGUCCGACGAUCCUUUCCUAACUUAGAUCUUCAUUGAGAAAUUGGGCAAGGUUAAGUUUACUUUUUUCGGGUGCUGCGGUUUUGGCUCGUCUUGGUAGUCUCAUCUUCAUUUCUGAUUCUGGUUCUGGAACUCAACAGAGGAUUGAGCAUCA
B4: chr1:155330963:155330964:-_ENSMUSG00000042699_ENSMUST00000042141|perfect_dup|FALSE|FALSE (ssRNA)
RNA: GGGAGUUCUACAGUCCGACGAUCACCUUCCACCUGAACCUCACACAUGAAUUUCUGCCUGUUUUUGUUCCCCACUGCUCUAAUUUCAUAGGAUGGGGUCAUCUUCCUUUUGCCACACCAGGCAUACAGAAAAUUUUUAACGUCCAACAGAGGAUUGAGCAUCA
B5: chr11:126104937:126104938:+_ENSG00000197798_ENST00000360194|hu_hu|motif|central (ssRNA)
RNA: GGGAGUUCUACAGUCCGACGAUCCUUCCUGGGCUUUUUGGUGGGAGGUUCGCCAUCGUUGAAGAAUCCAAAAAUCUCGUCGGUAUCAGAGGCCUGGCUCCCUGUAGAAGCCAUCCAGUUUCGAGUCUCCUCCAAACGCCACUGCAACAGAGGAUUGAGCAUCA
B6: chr14:102349618:102349619:+_ENSG00000078304_ENST00000445439|hu_mus|motif|central (ssRNA)
RNA: GGGAGUUCUACAGUCCGACGAUCUACAAACUUCUGAUCAAUAUAUUUCUUUGCUAUAUUGGGUUGGAAAUCUGGAGACUCGGAAAAUCUUAAGAAAAAUUCAUAAACAAGCUGCAGAUGAGGCCAGGCUGCUUCUAACGUUGGCAACAGAGGAUUGAGCAUCA
B7: 28425430_28425550_7441_3pUTR_ENSG00000104290_ENST00000240093|human|control|control (ssRNA)
RNA: GGGAGUUCUACAGUCCGACGAUCCCACAAUGAAAACCAACAAGUGAAUCACUUUUUCAAAACUUUUUCUCAAUCAGAAAAAAUGAGGUACAUAAAAGCCAAAAAGUCAAAGACAAAAAACAUUAUAGGGUCUACAUUCUUCUUCAACAGAGGAUUGAGCAUCA
B8: chr15:31520727:31520728:-_ENSMUSG00000022234_ENSMUST00000022842|mus_hu|motif|central (ssRNA)
RNA: GGGAGUUCUACAGUCCGACGAUCUCUUCAUUCUUCAGAUUCUCCAGGCUUACGAAUGUCAUCAAUCUUCAAAAUCAUUCGGACCAUUUGUGUUGCAAGAGAUAUCUGUUGCUUUUUGCCAAUCAAGGUUUCUAUGACAUGCUGCAACAGAGGAUUGAGCAUCA
B9: chr10:33214929:33214930:-_ENSG00000150093_ENST00000302278|hu_hu|hu_hu_hu_mus_True|38_78 (ssRNA)
RNA: GGGAGUUCUACAGUCCGACGAUCAACAAGUUCAUUGAAAAACUCUCCUCUGUCAGUAAGACUGAGCACAUUUUUGUAGCUAAAUGGGCUGGUGCAGUUCUGUUCACUUGUACAAGGAUUUCUUAGCUUUGCUGGGGUUGUGCUCAACAGAGGAUUGAGCAUCA
B10: 133976488_133976608_4332_3pUTR_ENSG00000205060_ENST00000378509|human|control|control (ssRNA)
RNA: GGGAGUUCUACAGUCCGACGAUCGAUAUAAAUGUAUCAAGUACAUUACAGUUGUUUUAGUUGGACGAAAAAGAAAACAAAGAAUCAAAAAUAAAUUACUAAUAAACAUGAAAAAGAUAACAUGUUUCUAAUAUGACAAUAGAGCAACAGAGGAUUGAGCAUCA
B11: chrX:109746815:109746816:+_ENSMUSG00000025529_ENSMUST00000071814|perfect_dup|FALSE|FALSE (ssRNA)
RNA: GGGAGUUCUACAGUCCGACGAUCGGUUUUAAAGUCACAAUGCCUACACUGGUGAAUCUUCCUACCCUUAUGAAUAUCACUAUGUUUUUUAAGCUCUGAAGGACGAUGAAAACCUUUAUCACAGACUUCACAUUUGUGAGGAAACAACAGAGGAUUGAGCAUCA
B12: chr12:57037365:57037366:-_ENSG00000110955_ENST00000262030|hu_hu|motif|central (ssRNA)
RNA: GGGAGUUCUACAGUCCGACGAUCCUUGCCAACUCCAGCACCACCAAAAAGCCCAAUUUUGCCACCCUUGGCAUAGGGAGCGGGCAGAUCGACAACCUUGAUACCAGUCACCAGAAUUUCCUGCUCAACACUCAUUUCCAUGAACAACAGAGGAUUGAGCAUCA
B13: 24222573_24222693_920_3pUTR_ENSG00000173960_ENST00000309033|human|control|control (ssRNA)
RNA: GGGAGUUCUACAGUCCGACGAUCUCUGAAUGAUGACAGCAUUCUGUAAAUCUGCUUCUUCCAGUGUGAGUGUCUCAUCUAGCAACCUGAGGACAGGAAGAGCUGUUGCCAGGGAAAACGGAGGACUUCUUUGAGAUCCUUGGUCAACAGAGGAUUGAGCAUCA
B14: chr16:732453:732454:+_ENSG00000103266_ENST00000219548|hu_hu|FALSE|FALSE (ssRNA)
RNA: GGGAGUUCUACAGUCCGACGAUCCGCCAGGUAGGGCAGGGAACCUCAGUAGUCCUCCACCCAGCCAUUCUCAGAGAUGAAUGCGUCAAUAACCUCCUUCAUAGCCAAGUUGGGGAUGAGCUGUUCCUGGGUCAGGGGGCUCCGCAACAGAGGAUUGAGCAUCA
B15: chr4:115894766:115894767:+_ENSMUSG00000028698_ENSMUST00000030464|mus_hu|mus_mus_mus_hu_True|1_28 (ssRNA)
RNA: GGGAGUUCUACAGUCCGACGAUCUUCCACACGGAAAUGUACUUCGGGUUUUCCAACGGCCAGUACCAGUCCGGCCAAACUACCCGAACAGGGUCCUCCCCCUCUCUUCUCUCCUCCACAACAAAAUGCCCCCGAACCCCGAACCAACAGAGGAUUGAGCAUCA
B16: chr1:74301520:74301521:+_ENSMUSG00000006304_ENSMUST00000006467|perfect_dup|motif|central (ssRNA)
RNA: GGGAGUUCUACAGUCCGACGAUCGAAGACUACUGUGACUCUGUCUUUCUUAGAUUCCACAUACAUGGUCUCAUCAUCCCGGUAAUGGAUAACUGCUCUGUUCUCUCCUUCUUUGCCCUCUUCUUGGAAUUGGAAGUAUUUCUCCAACAGAGGAUUGAGCAUCA
B17: chr6:17796276:17796277:+_ENSMUSG00000029534_ENSMUST00000053148|mus_hu|FALSE|FALSE (ssRNA)
RNA: GGGAGUUCUACAGUCCGACGAUCUCUCCAGGCUUUCUGCAUUAUUGCAUCUGCGGGACGCAGAUGGUCCGAGUCACAAGUAAAGAAUGUCUGGUGGUCUUGGGCAGAGAGAUUCAUGUCAUAGUAAGUAAGAGGCUCUCGUCCCAACAGAGGAUUGAGCAUCA
B18: chr13:41657021:41657022:+_ENSG00000120688_ENST00000379487|hu_hu|motif|central (ssRNA)
RNA: GGGAGUUCUACAGUCCGACGAUCGGUGUAUAAGUCUCCAUUCUGUCCUAAAAGCAUGUACAAAAAGCUCUCCUGCAACGGUUGAUCAUCACCUCGUUGCCUUAAAUUUCUAGAUUUUCCAUUUUCAGUUCUUCUCUUUUUGAACAACAGAGGAUUGAGCAUCA
B19: chr7:54823571:54823572:-_ENSG00000132432_ENST00000352861|hu_mus|hu_hu_hu_mus_False|8_108 (ssRNA)
RNA: GGGAGUUCUACAGUCCGACGAUCUCCCAUUAUAGCAAAUCCUAUAGCUGUAGCCAUGGCAAUCUUCUGGAAUUCUUUUCUGUCGGGUUUGGUGCAUCUUUUAACCAGCCGAAUUGAGUCCUUUACAAACUGCCGACUGGGCUCCAACAGAGGAUUGAGCAUCA
B20: 31954213_31954333_278_3pUTR_ENSMUSG00000022774_ENSMUST00000023460|mouse|control|control (ssRNA)
RNA: GGGAGUUCUACAGUCCGACGAUCCUUUAUAUCACCACUUUUGCUGAAGAGUUCAUAAAUCUGUUCUUCAGUUGUAUAAAAGGAAAGAUUUCCAACAUACAACGUACAGCUUUUCUUCAGUAACUUUUCUUGUUCUUCAUUGUCCAACAGAGGAUUGAGCAUCA
B21: chr12:39756943:39756944:-_ENSG00000139116_ENST00000544797|hu_mus|hu_hu_hu_mus_False|18_18 (ssRNA)
RNA: GGGAGUUCUACAGUCCGACGAUCGGUUUGGCUGUUACCCCCAAGGGAAUCCUGCAAGAGUCUUGUCAGCUUAGAGUCUCUGUAAGGGACAUGGGUGGCUCUCUUGCUCUUGUCCCCCAAGGCACUUAUUACAUUCCCAAGAGCCAACAGAGGAUUGAGCAUCA
B22: chr22:42024162:42024163:+_ENSG00000196419_ENST00000405878|hu_hu|motif|central (ssRNA)
RNA: GGGAGUUCUACAGUCCGACGAUCCUCAUCUUCACUCUGAGAUUCAAACAUAGCCUUGGAGGCAUCAACCAAAAAAAUCAAACGGUCUCUUCCUGAAUAUUUAUAGUCUCCACUUGCUUCAAGGUUCUCUUCUUGUUCUUCCUCCAACAGAGGAUUGAGCAUCA

What follows are binders tested against T1, UNK ZnF1-3 (assay: nsRBNS (natural sequence RNA bind-n-seq); RBNS binding buffer (assumed for nsRBNS): 25 mM Tris pH 7.5, 150 mM KCl, 3 mM MgCl2, 0.01% Triton X-100, 500 ug/ml BSA, 20 U/ml SUPERase-In, 4 C; UNK is unkempt and MSI1 is Musashi-1; names of the RNAs are library labels; protein concentration not given here; high values mean tight binding).
B1 was tested, and the binding signal was 1.1 enrichment R.
For B2, the binding signal was 1.46 enrichment R.
In the case of B3, the binding signal is reported as 0.381 enrichment R.
In the case of B4, the binding signal is reported as 0.84 enrichment R.
B5 showed a binding signal of 0.756 enrichment R.
For B6, the binding signal was 1.86 enrichment R.
For B7, the binding signal was 1.31 enrichment R.
Binder B8 has a binding signal of 0.774 enrichment R.
With B9 the binding signal was 1.05 enrichment R.
With B10 the binding signal was 3.16 enrichment R.
Work on B11 yielded a binding signal of 0.678 enrichment R.
B12 gave a binding signal of 1.6 enrichment R.
Binder B13 has a binding signal of 0.901 enrichment R.
Work on B14 yielded a binding signal of 1.25 enrichment R.
In the case of B15, the binding signal is reported as 0.973 enrichment R.
B16 showed a binding signal of 0.602 enrichment R.
Binder B17 has a binding signal of 1.18 enrichment R.
With B18 the binding signal was 0.716 enrichment R.
B19 gave a binding signal of 0.801 enrichment R.
Work on B20 yielded a binding signal of 0.266 enrichment R.
B21 gave a binding signal of 0.765 enrichment R.
With B22 the binding signal was 1.29 enrichment R.
